Experimental findings from PMC6141925 are described below.

By UniProt entry, the sequences of proteins in these tests, tags left out.
UniProt Q1KZ57: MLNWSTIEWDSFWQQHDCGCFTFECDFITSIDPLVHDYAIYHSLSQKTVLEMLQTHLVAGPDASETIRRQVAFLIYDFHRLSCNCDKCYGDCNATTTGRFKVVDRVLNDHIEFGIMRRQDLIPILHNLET
UniProt Q1KZ54: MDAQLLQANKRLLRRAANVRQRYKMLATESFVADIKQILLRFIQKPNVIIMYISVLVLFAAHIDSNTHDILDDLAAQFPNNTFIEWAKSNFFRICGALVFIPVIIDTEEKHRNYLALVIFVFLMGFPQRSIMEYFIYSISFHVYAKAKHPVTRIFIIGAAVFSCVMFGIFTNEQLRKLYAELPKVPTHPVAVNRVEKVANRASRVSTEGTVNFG
UniProt Q1KZ55: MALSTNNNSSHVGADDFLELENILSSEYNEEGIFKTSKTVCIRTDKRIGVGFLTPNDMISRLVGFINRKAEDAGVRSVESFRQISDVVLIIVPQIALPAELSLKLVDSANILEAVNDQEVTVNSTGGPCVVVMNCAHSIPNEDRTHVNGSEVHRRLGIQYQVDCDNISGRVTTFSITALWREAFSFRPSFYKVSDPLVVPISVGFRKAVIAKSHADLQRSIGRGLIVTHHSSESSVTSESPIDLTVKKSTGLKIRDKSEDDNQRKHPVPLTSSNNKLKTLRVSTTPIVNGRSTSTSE

No constants are given. Whether binding was seen depends on the method and setting. Binding seen in cells or lysates may run through a third protein. Some results given as binding are weak or reduced against the parent protein; the word gives no strength. For some of these results: Where a sequence is shown, tags or fusion partners need not be part of it.

Holding throughout (test): split reporter; BiFC with N-YFP and C-YFP halves fused to the N- or C-terminus of each protein; pairs transiently co-expressed in N. benthamiana leaves by agroinfiltration (OD600 = 0.4); 23°C day 18°C night; fluorescence reconstitution observed at 4 days post-infiltration by confocal microscopy; grades –, +, ++, +++ = absent, low, medium, high fluorescence
Assay [1] addresses C-YFP:p15 (citrus leprosis virus C) (UniProt Q1KZ57).
For assay [2], the target named is C-YFP:p24 (citrus leprosis virus C) (UniProt Q1KZ54).
Assay [3] has as its target p15:C-YFP (citrus leprosis virus C) (UniProt Q1KZ57).
Assay [4] concerns the target p24:C-YFP (citrus leprosis virus C) (UniProt Q1KZ54).
Assay [5] concerns the target N-YFP:p24 (citrus leprosis virus C) (UniProt Q1KZ54).
Assay [6] addresses p24:N-YFP (citrus leprosis virus C) (UniProt Q1KZ54).
Assay [7] deals with C-YFP:MP (citrus leprosis virus C) (UniProt Q1KZ55).
Assay [8] has as its target MP:C-YFP (citrus leprosis virus C) (UniProt Q1KZ55).
For assay [9], the target named is T1, C-YFP:TSWV N (tomato spotted wilt virus) (UniProt P25999).
T1 sequence: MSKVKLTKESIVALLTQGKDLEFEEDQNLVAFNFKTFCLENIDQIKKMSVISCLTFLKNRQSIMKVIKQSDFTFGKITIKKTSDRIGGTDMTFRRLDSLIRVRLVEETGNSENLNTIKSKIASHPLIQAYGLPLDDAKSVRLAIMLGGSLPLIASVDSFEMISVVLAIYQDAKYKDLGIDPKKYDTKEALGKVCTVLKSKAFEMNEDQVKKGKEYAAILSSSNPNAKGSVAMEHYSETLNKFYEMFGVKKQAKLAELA

For the molecule p15:N-YFP (from UniProt Q1KZ57 1-130), the binding entry in [1] is “binds”; in assay [2], “no binding”; in assay [3], “binds”; in assay [4] it was “no binding”.

Turning to MP:C-YFP (from UniProt Q1KZ55 1-297), the binding result in assay [5] and in [6] was “no binding” in each case.

Regarding p15:C-YFP (from UniProt Q1KZ57 1-130), the binding result in [5] and in assay [6] was “no binding” each time.

Turning to C-YFP:p15 (from UniProt Q1KZ57 1-130), the binding result in [5] and in assay [6] was “no binding” in each case.

Consider N-YFP:p15 (from UniProt Q1KZ57 1-130), for which the binding result is on record as “binds” in [1], “no binding” in [2], “binds” in [3] and “no binding” in assay [4].

On to N-YFP:MP (from UniProt Q1KZ55 1-297), for which the binding result in assay [7], in assay [2], in [8] and in assay [4] was “no binding” in each case.

Consider C-YFP:MP (from UniProt Q1KZ55 1-297), for which the binding result in [5] and in assay [6] was “no binding” throughout.

Turning to MP:N-YFP (from UniProt Q1KZ55 1-297), the binding result in assay [7], in assay [2], in assay [8] and in [4] was “no binding” each time.

B1: N-YFP:TSWV N (protein, UniProt P25999 1-258)
chain: T1 sequence
Regarding B1, the binding result in assay [9] is listed as “binds”.
